Laboratory results as given in PubChem BioAssay AID894 (National Center for Advancing Translational Sciences (NCATS), 2007).
Screen size: about 150,000 compounds; about 6,500 (4.3%) were called active. Inconclusive results, whose numbers are uncertain, are shown with a selection of clear calls. Calls come from the whole dose curve; as a rule, active = well fitted inhibition curve with a large enough effect (not every such curve was filed as active); inconclusive = small, poorly fitted or top-dose-only effect, or another doubt; inactive = no such curve, though single readings can be large or run the other way. Potencies of inconclusive entries are left out as doubtful fits.
% is set by controls: 0 for no effect and ±100 for the full control effect; potency is the fitted concentration of half-maximal effect; tags give direction and shape of the fitted curve.

What follows are molecules tested against 15-hydroxyprostaglandin dehydrogenase [NAD(+)] (Homo sapiens) (UniProt P15428) (assay: qHTS Assay for Inhibitors of HPGD (15-Hydroxyprostaglandin Dehydrogenase)). Conditions: purified HPGD, NADH fluorescence kinetic, PGE2 substrate; activity change, negative = inhibition: hits give low values.
Sequence of UniProt P15428 (P15428 whole entry, looked up): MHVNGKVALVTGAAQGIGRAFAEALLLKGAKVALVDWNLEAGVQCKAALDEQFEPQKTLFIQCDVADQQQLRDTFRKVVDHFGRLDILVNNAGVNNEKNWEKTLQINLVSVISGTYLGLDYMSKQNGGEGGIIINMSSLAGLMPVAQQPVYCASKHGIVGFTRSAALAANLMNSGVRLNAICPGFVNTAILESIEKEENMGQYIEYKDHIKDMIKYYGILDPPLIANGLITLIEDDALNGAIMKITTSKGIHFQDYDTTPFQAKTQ
Outline: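 NADH formation kinetics: reaction with 30 uM PGE2 and 1 mM NAD+ (final), 20 nM enzyme, Tris-HCl pH 8 with Tween 20, after 15 min compound preincubation at room temperature. Fluorescence change, last versus first of five reads.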
With `COc1ccc(CC(=O)Nc2ccc(-c3nc4cc(C)ccc4o3)c(O)c2)cc1OC` the Potency was inconclusive [inhibitor, partial curve].
`CCn1c(SCC(=O)N2CCC(C(N)=O)(N3CCCCC3)CC2)nnc1-c1ccccc1` was tested, and the activity change, negative = inhibition was inactive: 2.17%.
With `O=C(NCc1ccco1)c1cc(-c2cccs2)nc2ccccc12` the Potency was inconclusive [inhibitor, partial curve].
For `Cc1ccc(S(=O)(=O)c2nc(N3CCOCC3)sc2Cl)cc1`, the Potency was inconclusive [inhibitor, single point].
In the case of `Cc1c(C)[n+](=O)c(-c2ccco2)c(C)n1[O-]`, the activity change, negative = inhibition is reported as inactive: -14.9%.
With `O=c1oc2ccccc2c(O)c1/C=N/c1ncccn1` the Potency was inconclusive [inhibitor, partial curve].
`COc1cc2c(cc1OC)-c1cc(OCc3cccnc3)nc(=O)n1CC2` was tested, and the Potency was inconclusive [inhibitor, partial curve].
In the case of `CCN(CC)S(=O)(=O)c1ccc(NC(=O)Nc2cccc(C(F)(F)F)c2)cc1`, the activity change, negative = inhibition is reported as inactive: -0.722%.
In the case of `O=C(NNc1ncc(C(F)(F)F)cc1Cl)c1c(Cl)cccc1Cl`, the activity change, negative = inhibition is reported as inactive: -3.55%.
In the case of `CCOC(=O)Cc1cnc(NC(=O)c2ccccc2)s1`, the activity change, negative = inhibition is reported as inactive: -18.6%.
`COc1cc2c(cc1O)C(Cc1ccc(O)cc1)[N+](C)(C)CC2` (stereo not drawn) was tested, and the activity change, negative = inhibition was inactive: -15.8%.
For `COc1ccc(Nc2nnc(-c3ccccc3)c3ccccc23)cc1C(=O)N1CCCCC1`, the Potency was inconclusive [inhibitor, partial curve, poor fit].
`Cc1ccc(-n2c(C)cc(/C=c3/sc4nc5ccccc5n4c3=O)c2C)cc1` was tested, and the activity change, negative = inhibition was inactive: -14.6%.
For `CC(C)c1nc2sc3c(=O)[nH]c(=S)[nH]c3c2c2c1CCC2`, the Potency was active: 15.8 µM.
For `CCN(CC)S(=O)(=O)c1cc([N+](=O)[O-])ccc1NNC(=O)Nc1ccccc1OC`, the Potency was inconclusive [inhibitor, partial curve].
With `COc1ccc(S(=O)(=O)N(C)c2ccc(C(N)=O)cc2)cc1` the activity change, negative = inhibition was inactive: -7.05%.
With `O=C1CCCc2c1nc(-c1cccc(Cl)c1)n2O` the Potency was inconclusive [inhibitor, partial curve].
For `Cn1c(=O)c2c(nc(NCc3ccco3)n2C/C=C/c2ccccc2)n(C)c1=O`, the activity change, negative = inhibition was inactive: -5.48%.
With `CC(NC(=O)c1ccnc(C(C)(C)C)c1)c1ccccc1` (stereo not drawn) the activity change, negative = inhibition was inactive: 0.629%.
For `CCSc1nc(-c2ccc(OC)cc2)n(-c2nc3ccccc3s2)n1`, the Potency was inconclusive [inhibitor, partial curve].
With `O=C(Cc1ccccc1)n1nc(-c2ccco2)nc1SCc1ccccc1` the Potency was active: 4.47 µM.
With `CCOC(=O)N1CCN(c2cc3[nH]c(=S)[nH]c3cc2F)CC1` the Potency was inconclusive [inhibitor, partial curve].
For `CCOC(=O)c1[nH]c(C)c(C(=O)NC2CCCC2)c1C`, the Potency was active: 17.8 µM.
For `CCC/C(O)=C1\C(=O)CC(c2ccccc2)CC1=NC` (stereo not drawn), the Potency was inconclusive [inhibitor, partial curve, poor fit].
With `CCOC(=O)c1cc2sccc2n1CC(=O)N1CCCc2ccccc21` the activity change, negative = inhibition was inactive: -21.5%.
For `COc1ccc(C(=O)NC(=S)Nc2ccc3oc(=O)ccc3c2)cc1OC`, the activity change, negative = inhibition was inactive: 2.04%.
With `O=C(c1ccccc1)c1ccc(OCCn2cnc3ccccc3c2=O)cc1` the Potency was active: 4.47 µM.
For `CCc1ccc(Nc2ncc3c(n2)CC(c2ccco2)CC3=O)cc1` (stereo not drawn), the Potency was inconclusive [inhibitor, partial curve].
In the case of `CC(=O)c1ccc(-c2nc3ccccc3n2C)o1`, the Potency is reported as inconclusive [inhibitor, partial curve].
For `C/C(=C\C(=O)c1ccncc1)Nc1ccccc1O`, the Potency was active: 14.1 µM.
In the case of `c1ccc(-c2nnc(SCc3nnc(-c4cccs4)o3)o2)cc1`, the Potency is reported as inconclusive [inhibitor, partial curve].
With `CN(C)/C=C/c1c(C#N)c(=O)ncn1Cc1ccccc1` the Potency was inconclusive [inhibitor, partial curve].
For `CCOc1cc(C2C3=C(CCCC3=O)N(CCC(=O)O)C3=C2C(=O)CCC3)ccc1OS(=O)(=O)c1ccc(C)cc1`, the Potency was inconclusive [inhibitor, partial curve].
For `CN1CCN(C(=O)c2ccc(N3CCCC3=O)cc2)CC1`, the Potency was active: 12.6 µM.
In the case of `CS(=O)(=O)Nc1ccc(S(=O)(=O)Nc2nccs2)cc1`, the activity change, negative = inhibition is reported as inactive: 4%.
For `COc1ccc(NS(=O)(=O)c2cccc(NC(=O)c3ccc(S(=O)(=O)N4CCCCCC4)cc3)c2)cc1`, the activity change, negative = inhibition was inactive: -13.4%.
In the case of `COC(=O)C1=C(C)Nc2nnnn2C1c1cccs1` (stereo not drawn), the Potency is reported as active: 15.8 µM.
`O=c1cc(C(F)(F)F)nc(-n2[nH]c3c(c2=O)CCCC3)[nH]1` was tested, and the Potency was inconclusive [inhibitor, partial curve].
With `CC(=O)c1cccc(NC(=O)Nc2ccc(C(=O)N3CCCC3)cc2)c1` the Potency was active: 1.12 µM.
With `CCOc1ccc2nc(Nc3nc4ccc(NC(C)=O)cc4s3)sc2c1` the Potency was inconclusive [inhibitor, partial curve].
In the case of `COc1cc(C2CC(=O)Nc3cc(C)c(C)cc32)cc(OC)c1OC` (stereo not drawn), the activity change, negative = inhibition is reported as inactive: -0.981%.
With `COc1ccc(-c2nn3c(-c4ccco4)nnc3s2)cc1OC` the Potency was inconclusive [inhibitor, partial curve].
For `COC(=O)Nc1sc2c(c1C(=O)NCc1ccco1)CCC2`, the Potency was inconclusive [inhibitor, partial curve].
With `COCCCNC(=O)CN(c1cccc(Cl)c1)S(C)(=O)=O` the activity change, negative = inhibition was inactive: -8.82%.
With `COc1ccc(/C=N/NC(=O)c2nn(-c3ccc(C)c(C)c3)c(=O)c3ccccc23)cc1` the Potency was inconclusive [inhibitor, partial curve, poor fit].
In the case of `COC(=O)c1oc2ccc(OC)cc2c1N`, the Potency is reported as inconclusive [inhibitor, partial curve].
With `O=C1c2cccc3cccc(c23)C(=O)N1CC1CCN(CC(O)COc2ccc3ccccc3c2)CC1` (stereo not drawn) the activity change, negative = inhibition was inactive: -23%.
With `COc1ccc(-c2nc(C#N)c(N3CCCCCC3)o2)cc1` the Potency was inconclusive [inhibitor, partial curve].
